The supplement of paper PMC7125110
± gives the standard error. Variants at the floor of the assay are shown more often than the library holds them.

B1: glmS ribozyme (parent)
chain: AUAAAAGCGCCAGAACUACAGAAAUGUAGUUGACGAGGAGGAGGUUUAUCGAAUUUUCGGCGGAUGCCUCCAAA

Key:
Details in all cases: with glucosamine-6-phosphate
glucosamine-6-phosphate [1] = variants of: B1; assay: self-cleavage kobs at 40 uM GlcN6P; higher = faster cleavage; RNA array
In short: (§1)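 Glucosamine-6-phosphate (40 μM to 10 mM) in HEPES/KCl/Mg(OAc)2 buffer was flowed over sequenced MiSeq chips, and tiles were imaged over ~14 h. Barcoded ribozyme variants there had been transcribed in situ by E. coli RNA polymerase and were tracked through a hybridised Cy3 probe at 37 °C. One- or two-exponential decay fits to per-tile medians, normalised to baseline and to non-cleaving reference variants, gave kobs. kcat and KM came from weighted Michaelis–Menten fits across concentrations.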

glucosamine-6-phosphate [2] = variants of: B1; assay: self-cleavage kobs at 640 uM GlcN6P; higher = faster cleavage; RNA array
In short: as §1

glucosamine-6-phosphate [3] = variants of: B1; assay: self-cleavage kobs at 2500 uM GlcN6P; higher = faster cleavage; RNA array
In short: as §1

glucosamine-6-phosphate [4] = variants of: B1; assay: self-cleavage kobs at 10000 uM GlcN6P; higher = faster cleavage; RNA array
In short: as §1

glucosamine-6-phosphate [5] = variants of: B1; assay: self-cleavage kobs at 160 uM GlcN6P; higher = faster cleavage; RNA array
In short: as §1

Variant	self-cleavage kobs at 40 uM GlcN6P (glucosamine-6-phosphate [1]) [s⁻¹]	self-cleavage kobs at 640 uM GlcN6P (glucosamine-6-phosphate [2]) [s⁻¹]	self-cleavage kobs at 2500 uM GlcN6P (glucosamine-6-phosphate [3]) [s⁻¹]	self-cleavage kobs at 10000 uM GlcN6P (glucosamine-6-phosphate [4]) [s⁻¹]	self-cleavage kobs at 160 uM GlcN6P (glucosamine-6-phosphate [5]) [s⁻¹]
A33U U46A U47G	< 1e-05	–	–	–	–
C34A G60U	< 1e-05	< 1e-05	< 1e-05	< 1e-05	–
C34A G60C	< 1e-05	< 1e-05	< 1e-05	< 1e-05	< 1e-05
C34A G60A	< 1e-05	< 1e-05	< 1e-05	< 1e-05	< 1e-05
C34G C58A C67A	< 1e-05	–	–	–	–
A33U C50G C71G	0.000128 ± 2.3e-05	–	–	0.0002 ± 4.2e-05	–
C34G U55G	< 1e-05	–	–	< 1e-05	–
C34G U55A	< 1e-05	< 1e-05	< 1e-05	< 1e-05	< 1e-05
C34A A42C	< 1e-05	< 1e-05	< 1e-05	< 1e-05	< 1e-05
C34U G41U U54A	< 1e-05	< 1e-05	< 1e-05	–	–
C34A U56C	< 1e-05	–	–	–	–
C34A U47A A52C A64U	< 1e-05	–	–	–	–
C34G U49A	< 1e-05	–	–	< 1e-05	–
A33U G40A	< 1e-05	–	–	–	–
A33U G38U G40U	< 1e-05	–	–	–	–
A33U G62U G63A C70U	< 1e-05	< 1e-05	–	< 1e-05	< 1e-05
A33U U45C	< 1e-05	< 1e-05	< 1e-05	–	< 1e-05
C34A U45A	< 1e-05	–	–	–	–
C34A U57C C68G	< 1e-05	< 1e-05	< 1e-05	–	–
C34A A42G U54C	< 1e-05	–	–	–	–
C34A U47G	< 1e-05	< 1e-05	< 1e-05	< 1e-05	< 1e-05
C34A G35C U55A	< 1e-05	–	< 1e-05	–	–
C34U G40U U57C	< 1e-05	–	–	–	–

Variant	self-cleavage kobs at 40 uM GlcN6P (glucosamine-6-phosphate [1]) [s⁻¹]	self-cleavage kobs at 640 uM GlcN6P (glucosamine-6-phosphate [2]) [s⁻¹]	self-cleavage kobs at 2500 uM GlcN6P (glucosamine-6-phosphate [3]) [s⁻¹]	self-cleavage kobs at 10000 uM GlcN6P (glucosamine-6-phosphate [4]) [s⁻¹]	self-cleavage kobs at 160 uM GlcN6P (glucosamine-6-phosphate [5]) [s⁻¹]
C34U A48U	< 1e-05	< 1e-05	< 1e-05	< 1e-05	< 1e-05
C34U A48G	< 1e-05	< 1e-05	< 1e-05	< 1e-05	< 1e-05
C34U A48C	< 1e-05	–	< 1e-05	< 1e-05	–
C34U G62U	< 1e-05	–	< 1e-05	–	< 1e-05
C34U G62A	< 1e-05	< 1e-05	< 1e-05	–	< 1e-05
C34A U55C	< 1e-05	< 1e-05	< 1e-05	–	< 1e-05
C34A G40A	< 1e-05	< 1e-05	< 1e-05	< 1e-05	–
C34G A42C C61A	< 1e-05	< 1e-05	< 1e-05	–	–
A33U G60U	< 1e-05	< 1e-05	–	< 1e-05	< 1e-05
A33U G59U	< 1e-05	< 1e-05	< 1e-05	–	–
A33U G59C	< 1e-05	< 1e-05	–	–	–
C34A C50A	< 1e-05	< 1e-05	–	< 1e-05	–
C34G A53U	< 1e-05	< 1e-05	< 1e-05	< 1e-05	–
C34A G37U G44U	< 1e-05	–	–	–	–
C34U A42C	< 1e-05	< 1e-05	–	–	–
C34G G51U U55A	< 1e-05	–	–	< 1e-05	–
C34G G66C	< 1e-05	–	–	< 1e-05	–
C34A A48G	< 1e-05	< 1e-05	< 1e-05	< 1e-05	< 1e-05
A33U U57C G60C	< 1e-05	–	–	–	–
C34U C71A	< 1e-05	< 1e-05	< 1e-05	–	–
C34A C61U C67U	< 1e-05	–	–	–	–
A33U U57C	< 1e-05	< 1e-05	–	–	–
C34U A39C G63A G66C	< 1e-05	< 1e-05	< 1e-05	< 1e-05	< 1e-05
